{"source": "PubChem BioAssay AID588855", "about": "(National Center for Advancing Translational Sciences (NCATS), 2011)", "note": "The whole screen tested about 410,000 compounds, of which about 5,000 (1.2%) were called active. The inconclusive results got no clear call from the source; some entries with a clear call stand among them for comparison. Calls follow the shape of the dose curve; as a rule, active = well fitted inhibition curve with a large enough effect; inconclusive = small, poorly fitted or top-dose-only effect; inactive = no such curve, though single readings can be large or run the other way. Potencies of inconclusive entries are doubtful fits and often do not repeat. % is scaled to controls: 0 for no effect and ±100 for the full control effect; potency is read from the fitted curve at half-maximal effect; tags tell the direction and shape of the fitted curve.", "data": [{"assay": "qHTS for Inhibitors of TGF-b; also: nearly all actives have a fitted effect of over 65% in size", "settings": "HepG2 CAGA-GFP TGF-b/SMAD3 reporter, GFP fluorescence, 18 h, TGF-beta stimulated, 500 pg/mL final; series mostly up to 46.1 µM; activity, negative = inhibition: at the top concentration", "procedure,_shortened": "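Per well, imaged GFP fluorescence of HEPG2 CAGA-GFP cells gives the signal; cells get compound, then TGF-beta (500 pg/mL final), 18 h at 37 degrees C; %Activity versus -TGF-beta and +DMSO controls.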", "values": [{"smiles": "c1cc2c3c(cccc3c1)NC1(CCCCCC1)N2", "activity, negative = inhibition": "inactive: 23.4%"}, {"smiles": "O=C(COC(=O)c1ccc(NS(=O)(=O)c2cccs2)cc1O)Nc1nc2ccccc2s1", "Potency": "inconclusive: 14.1 µM [inhibitor, single point]"}, {"smiles": "CN(C)c1ccc(CNC(=O)C2CCN(C(=O)c3ccc(-n4ccc5ccccc54)s3)CC2)cc1", "Potency": "inconclusive: 10 µM [inhibitor, partial curve, poor fit]"}, {"smiles": "O=c1[nH]c(CCl)nc2cc(-c3ccc(F)cc3)sc12", "Potency": "inconclusive: 35.5 µM [inhibitor, single point]"}, {"smiles": "Fc1ccc(/C=N/NC(=S)Nc2cccnc2)cc1", "Potency": "inconclusive: 12.6 µM [inhibitor, single point]"}, {"smiles": "COc1nnc(-c2ccc(N3CCOCC3)c(NC(=O)c3ccccc3)c2)c2ccccc12", "Potency": "inconclusive: 0.794 µM [inhibitor, partial curve, poor fit]"}, {"smiles": "CC(=O)c1ccccc1NC(=O)COC(=O)Cc1cccc(C(F)(F)F)c1", "Potency": "inconclusive: 35.5 µM [inhibitor, single point]"}, {"smiles": "Cc1ccc(N2CCN(C(=O)CCS(=O)(=O)c3cc4c(cc3Cl)NC(=O)CO4)CC2)c(C)c1", "Potency": "inconclusive: 35.5 µM [inhibitor, single point]"}, {"smiles": "COCCN(Cc1ccccc1)C(=O)c1cccc(S(=O)(=O)N2CCN(c3ccc(F)cc3)CC2)c1", "Potency": "inconclusive: 11.2 µM [inhibitor, partial curve, poor fit]"}, {"smiles": "COc1ccc(C(C)C)cc1S(=O)(=O)N1CCN(C)CC1", "activity, negative = inhibition": "inactive: 6.66%"}, {"smiles": "C[C@H]1CN([C@@H](C)CO)S(=O)(=O)c2ccc(Br)cc2O[C@H]1CN(C)Cc1ccccc1", "Potency": "inconclusive: 35.5 µM [inhibitor, single point]"}, {"smiles": "Cc1ccc(C)n1-c1ccc(-n2cnnn2)cc1", "activity, negative = inhibition": "inactive: -3.28%"}, {"smiles": "OC1(C#CCCN2CCCCC2)c2ccccc2-c2ccccc21", "activity, negative = inhibition": "inactive: -1.98%"}, {"smiles": "CC1=C(C(=O)OCc2ccccc2)C(c2ccc(Br)cc2)NC(=O)N1CCCC(=O)O", "note": "(stereo not drawn)", "activity, negative = inhibition": "inactive: 0.557%"}, {"smiles": "Cc1ccc(OCC(=O)Nc2ccc(C(=O)OCc3cc(=O)n4ccsc4n3)cc2)cc1C", "Potency": "inconclusive: 35.5 µM [inhibitor, single point]"}, {"smiles": "CC(=O)c1ccc(N2CCN(S(=O)(=O)c3ccc(-c4cnc(C5CC5)o4)cc3)CC2)cc1", "Potency": "inconclusive: 35.5 µM [inhibitor, single point]"}, {"smiles": "COc1ccc(CN(C)CC2CCCN(CCc3ccc(F)cc3)C2)c(OC)c1OC", "note": "(stereo not drawn)", "Potency": "inconclusive: 12.6 µM [inhibitor, partial curve, poor fit]"}, {"smiles": "CN(C)c1ccc(-c2cccc3nccn23)cc1", "Potency": "inconclusive: 17.8 µM [inhibitor, single point]"}, {"smiles": "CCCN1CCC(=NNc2ccc(S(=O)(=O)N(CC)CC)cc2[N+](=O)[O-])CC1", "Potency": "inconclusive: 7.08 µM [inhibitor, full curve, poor fit]"}, {"smiles": "CCOc1ccc(N2C=Nc3ccc(OCC)cc3C2)cc1", "Potency": "inconclusive: 35.5 µM [inhibitor, single point]"}, {"smiles": "COc1ccc(/C=C2\\CCCC3C2=NN(C(=O)CSc2ncn[nH]2)C3c2ccc(OC)cc2)cc1", "note": "(stereo not drawn)", "Potency": "inconclusive: 35.5 µM [inhibitor, single point]"}, {"smiles": "O=C(O)c1ccc(N/N=C/c2c[nH]c3ccccc23)cc1", "activity, negative = inhibition": "inactive: 5.23%"}, {"smiles": "CCOC(=O)c1ccc(NC(=O)C2CCCN(c3cnccn3)C2)cc1", "note": "(stereo not drawn)", "Potency": "inactive"}, {"smiles": "CCOC(=O)C1=C(CNCc2ccc(Cl)cc2)NC(=O)NC1c1ccccc1", "note": "(stereo not drawn)", "Potency": "inconclusive: 22.4 µM [inhibitor, single point]"}, {"smiles": "Cc1ccc(NC(=O)c2ccc(S(=O)(=O)N3CCOCC3)cc2)nc1", "activity, negative = inhibition": "inactive: 28.7%"}, {"smiles": "CC1CCN(C(=O)CN2C(=O)c3cccc4cccc(c34)C2=O)CC1", "Potency": "inconclusive: 0.562 µM [inhibitor, full curve]"}, {"smiles": "O=C(c1ccccc1)c1ccc(C(=O)N2CCN(c3ccccc3Cl)CC2)cc1", "Potency": "inconclusive: 35.5 µM [inhibitor, single point]"}, {"smiles": "COc1cc(NC(=O)Cn2cc(S(=O)(=O)N3CCC(C)CC3)c3ccccc3c2=O)cc(OC)c1OC", "Potency": "inconclusive: 10 µM [inhibitor, partial curve]"}, {"smiles": "CCCC(C(=O)Nc1cc(C)c(Cl)cc1OC)N1Cc2ccccc2C1=O", "note": "(stereo not drawn)", "Potency": "inconclusive: 7.08 µM [inhibitor, partial curve, poor fit]"}, {"smiles": "CCCc1nc2c3ccccc3ccn2c1Cc1ccccc1", "Potency": "inconclusive: 10 µM [inhibitor, partial curve, poor fit]"}, {"smiles": "C[C@H](CO)N1C[C@H](C)[C@@H](CN(C)S(=O)(=O)c2ccc(Oc3ccccc3)nc2)OCc2cn(nn2)CCCC1=O", "Potency": "inconclusive: 6.31 µM [inhibitor, single point]"}, {"smiles": "Cc1ccc(S(=O)(=O)NCCOc2nc(N(C)C)nc(N(C)C)n2)cc1", "Potency": "inconclusive: 12.6 µM [inhibitor, partial curve, poor fit]"}, {"smiles": "COc1ccc(C(=O)c2ccc(N(C)C)cc2)c2ccccc12", "Potency": "inconclusive: 14.1 µM [inhibitor, partial curve, poor fit]"}, {"smiles": "O=C(NC1CCN(Cc2ccccc2)CC1)c1ccc(CS(=O)c2ccc(F)cc2)o1", "note": "(stereo not drawn)", "activity, negative = inhibition": "inactive: 7.84%"}, {"smiles": "CCCOc1ccc(F)cc1-c1cc(C(=O)NCc2cccc(Cl)c2)[nH]n1", "Potency": "inconclusive: 31.6 µM [inhibitor, single point]"}, {"smiles": "COc1cc2c(cc1OC)C(C)N(S(=O)(=O)c1cnc(Cl)c(Cl)c1)CC2", "note": "(stereo not drawn)", "Potency": "inconclusive: 35.5 µM [inhibitor, single point]"}, {"smiles": "Cc1ccc(OC(F)F)c(NC(=O)Nc2cccc(C(F)(F)F)c2)c1", "Potency": "inconclusive: 20 µM [inhibitor, single point]"}, {"smiles": "N#CC1(C#N)CC(C=O)=C(N)C1(C#N)CC(=O)C12CC3CC(CC(C3)C1)C2", "note": "(stereo not drawn)", "Potency": "inconclusive: 14.1 µM [inhibitor, partial curve, poor fit]"}, {"smiles": "O=C1CN(C(=O)COC(=O)c2ccc(Br)o2)c2ccccc2N1", "activity, negative = inhibition": "inactive: 18.5%"}, {"smiles": "O=C(NCc1nc2ccccc2[nH]1)C1=C[C@@H](c2csc3ccccc23)C[C@@H](OCCCCO)O1", "Potency": "inconclusive: 7.94 µM [inhibitor, partial curve, poor fit]"}, {"smiles": "NC(=O)CC(NC(=O)Cc1ccc(Br)cc1)c1ccc(NCc2cc(F)ccc2F)c([N+](=O)[O-])c1", "note": "(stereo not drawn)", "Potency": "inconclusive: 11.2 µM [inhibitor, single point]"}, {"smiles": "CC1CC(=O)c2c(cc3c(-c4c(O)cc(O)c5c(O)c6c(cc45)OC(C)CC6=O)c(O)cc(O)c3c2O)O1", "note": "(stereo not drawn)", "Potency": "inconclusive: 20 µM [inhibitor, single point]"}, {"smiles": "COc1ccc(CNC(=O)CN(C)S(=O)(=O)c2ccc3[nH]c4c(c3c2)CCCC4)cc1", "Potency": "inconclusive: 35.5 µM [inhibitor, single point]"}, {"smiles": "COc1ccc(Nc2cc(C)c3cc([N+](=O)[O-])ccc3n2)cc1", "Potency": "inconclusive: 31.6 µM [inhibitor, single point]"}, {"smiles": "O=C(COc1cccc(C(F)(F)F)c1)NCC(c1cccs1)N1CCOCC1", "note": "(stereo not drawn)", "Potency": "inconclusive: 20 µM [inhibitor, single point]"}, {"smiles": "CC(C)c1ccc(NC(=O)c2cc(S(=O)(=O)NCCC3=CCCCC3)ccc2F)cc1", "Potency": "inconclusive: 35.5 µM [inhibitor, single point]"}, {"smiles": "S=C1NC2=C(CCC/C2=C\\c2ccc(Cl)cc2)C(c2ccc(Cl)cc2)N1", "note": "(stereo not drawn)", "Potency": "active: 17.8 µM"}, {"smiles": "COc1ccc(NC(=O)Cc2ccc(NC(=O)N3CCCCc4ccccc43)cc2)c(OC)c1", "activity, negative = inhibition": "inactive: -2.54%"}, {"smiles": "COc1ccc(S(=O)(=O)N2CCCC(C(=O)N3CCCCCC3)C2)cc1", "note": "(stereo not drawn)", "activity, negative = inhibition": "inactive: 13.9%"}, {"smiles": "COc1cc2c(cc1OC)C(C)N(C(=O)CCc1c[nH]c3ccccc13)CC2", "note": "(stereo not drawn)", "activity, negative = inhibition": "inactive: 0%"}, {"smiles": "CCOC(=O)c1c(C)[nH]c(C(=O)CN2C(=O)NC(C)(c3ccc4ccccc4c3)C2=O)c1C", "note": "(stereo not drawn)", "Potency": "inconclusive: 11.2 µM [inhibitor, partial curve]"}, {"smiles": "COc1ccc(-c2nc3sc(CCNC(=O)c4ccc(C(C)(C)C)cc4)c(C)n3n2)cc1", "Potency": "inconclusive: 0.562 µM [inhibitor, full curve, poor fit]"}, {"smiles": "COc1ccccc1CNC(=O)CCNC(=O)Cn1ccc2ccccc2c1=O", "Potency": "inconclusive: 20 µM [inhibitor, partial curve, poor fit]"}, {"smiles": "CCCNC(=O)c1ccccc1NC(=O)c1cccc(-n2cnnn2)c1", "activity, negative = inhibition": "inactive: 6.31%"}, {"smiles": "Nc1nn2cc(-c3ccc(Br)cc3)nc2c2ccccc12", "Potency": "inconclusive: 6.31 µM [inhibitor, full curve, poor fit]"}, {"smiles": "Cc1ccc2c(C(=O)CCl)c(C)[nH]c2c1", "Potency": "inconclusive: 15.8 µM [inhibitor, single point]"}, {"smiles": "Cc1ccc(S(=O)(=O)Nc2ccc3ccccc3c2)cc1", "Potency": "inconclusive: 17.8 µM [inhibitor, single point]"}, {"smiles": "COC(=O)CSc1[nH]c2ccc(F)cc2c1[N+](=O)[O-]", "Potency": "inconclusive: 35.5 µM [inhibitor, partial curve, poor fit]"}, {"smiles": "Cc1cc(C)cc(NC(=S)Nc2ccccn2)c1", "Potency": "inconclusive: 22.4 µM [inhibitor, single point]"}, {"smiles": "CCc1ccccc1NC(=S)/N=C(\\N)Nc1nc(C)c2cc(C)ccc2n1", "Potency": "inconclusive: 3.55 µM [inhibitor, full curve]"}, {"smiles": "CC(=O)N1CCc2c(sc3c2c(=O)n(-c2ccccc2)c(=O)n3CC(=O)c2ccc(F)cc2)C1", "Potency": "inconclusive: 12.6 µM [inhibitor, single point]"}, {"smiles": "COc1cc(C(=O)Nc2nnc(CC(C)(C)C)s2)cc(OC)c1OC", "Potency": "inconclusive: 3.55 µM [inhibitor, single point]"}, {"smiles": "Cc1c(Cl)cccc1NS(=O)(=O)c1cccc2nsnc12", "Potency": "inconclusive: 3.55 µM [inhibitor, single point]"}]}]}
